Test results reported in patent publication US20190135895A1 (published 2019).

How the values were obtained:
[1] = molecular target: T1, truncated monomeric His-tagged human FcRn (human, UniProt P55899 part only; P61769 part only); experiment: SPR (BIAcore 3000), hFcRn injected over immobilized (~500 RU) GST-fused HSA variant, pH 6.0, 1:1 model
T1 construct: extracellular domain; Made in a Baculovirus system; also called hFcRn; soluble hFcRn; not shown: His tag

[2] = molecular target: T1, truncated monomeric His-tagged human …; experiment: SPR, hFcRn over immobilized HSA variants, pH 6.0

T1 sequence (P55899 24-297 limits assumed, chain 1 of 2): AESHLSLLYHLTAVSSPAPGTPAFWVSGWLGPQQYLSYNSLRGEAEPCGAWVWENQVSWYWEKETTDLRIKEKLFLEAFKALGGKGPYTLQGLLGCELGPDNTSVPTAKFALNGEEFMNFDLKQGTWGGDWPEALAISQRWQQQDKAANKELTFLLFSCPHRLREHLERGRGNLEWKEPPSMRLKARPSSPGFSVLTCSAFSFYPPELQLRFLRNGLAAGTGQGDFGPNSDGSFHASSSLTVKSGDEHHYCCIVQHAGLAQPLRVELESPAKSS
T1 sequence (P61769 21-119 limits assumed, chain 2 of 2, further chain): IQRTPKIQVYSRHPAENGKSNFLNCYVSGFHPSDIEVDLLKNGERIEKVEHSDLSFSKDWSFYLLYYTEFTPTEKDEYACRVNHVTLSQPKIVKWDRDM

B1: HSA E505Q/T527M/V547A/K573P-GST (other)
chain: DAHKSEVAHRFKDLGEENFKALVLIAFAQYLQQCPFEDHVKLVNEVTEFAKTCVADESAENCDKSLHTLFGDKLCTVATLRETYGEMADCCAKQEPERNECFLQHKDDNPNLPRLVRPEVDVMCTAFHDNEETFLKKYLYEIARRHPYFYAPELLFFAKRYKAAFTECCQAADKAACLLPKLDELR[about 200 residues not written out]NLIKQNCELFEQLGEYKFQNALLVRYTKKVPQVSTPTLVEVSRNLGKVGSKCCKHPEAKRMPCAEDYLSVVLNQLCVLHEKTPVSDRVTKCCTESLVNRRPCFSALEVDETYVPKEFNAQTFTFHADICTLSEKERQIKKQMALVELVKHKPKATKEQLKAAMDDFAAFVEKCCKADDKETCFAEEGPKLVAASQAALGL
In the case of B1, the Kd [1] is reported as 0.1 nM, the koff [1] is reported as 4e-05 s⁻¹ and the kon [1] is reported as 250000 M⁻¹ s⁻¹. The “fold improved KD relative to WT HSA” value [2] was over 1400 fold.
